Measurements taken from PubChem BioAssay AID741 (SRMLSC, 2007).
Inconclusive results, whose numbers are uncertain, are shown with a selection of clear calls. Activity calls are given as the source filed them. Cut-off read from the data, not from the text of the source: active = toxicity enhancement factor above about 0.054; inconclusive = between about 0.00067 and that limit; inactive = weaker than that.

Assay: MRP-overexpressing cell chemosensitization – dose response (AID 741)
Settings: MRP-overexpressing cells, viability with/without cytotoxic drug; active compounds read high

Structure (SMILES)	toxicity enhancement factor
Cn1c(=N)c(S(=O)(=O)c2ccccc2)cc2c(=O)n3ccccc3nc21	inconclusive: 0.0153
CS(=O)(=O)Nc1ccc([N+](=O)[O-])cc1Oc1ccccc1	inactive: -0.0071
CCOC(=O)c1cnc2ccc(OCC)cc2c1N1CCN(c2ccccc2)CC1	inconclusive: 0.0501
CCN(CCCNC(=O)c1cn(CC)c2ccc(S(=O)(=O)N(C)C)cc2c1=O)c1cccc(C)c1	inconclusive: 0.0333
CCCCc1c(C)c(C#N)c2nc3ccccc3n2c1Nc1c(C)n(C)n(-c2ccccc2)c1=O	inconclusive: 0.0375
CCOC(=O)c1cc(CC)sc1NC(=O)Cc1ccccc1	inconclusive: 0.0057
O=C(NCc1ccc(N2CCCC2=O)cc1)c1cn(CCc2ccccc2)nn1	inconclusive: 0.0107
O=C(O)Cc1ccc(-c2ccccc2)cc1	inactive: -0.0033
Cc1cccc(Cn2c(NCC(C)O)nc3c2c(=O)n(C)c(=O)n3C)c1 (stereo unspecified)	inactive: -0.0055
CC(C(=O)O)c1cccc(C(=O)c2ccccc2)c1 (stereo unspecified)	inactive: -0.0105
Cc1nc(SCC(=O)Nc2c(C)nn(C)c2C)c2cnn(-c3ccccc3)c2n1	inconclusive: 0.0088
CCOC(=O)c1c(C)[nH]c(N=Nc2ccc(C)cc2)c1C	inactive: -0.006
c1ccc2c(c1)nc1n2CN(Cc2ccc3c(c2)OCO3)CN1	inactive: -0.0032
CCOc1cccc(C(=O)Nc2ccccc2N2CCN(C(=O)C(C)C)CC2)c1	inconclusive: 0.0107
CCC(Oc1ccccc1)C(=O)Nc1ccc(S(=O)(=O)N2CCOCC2)cc1 (stereo unspecified)	inconclusive: 0.0044
Cc1cc(NC(=O)CSc2nnc(-c3ccc4c(c3)OCCO4)o2)no1	inconclusive: 0.006
COC(=O)Nc1ccc(S(=O)(=O)Nc2ccc(O)cc2)cc1	inactive: -0.0016
COC(=O)C(C)Sc1nnc2n(-c3cccc(C)c3)c(=O)c3c4c(sc3n12)CCCC4 (stereo unspecified)	active: 0.061

Structure (SMILES)	toxicity enhancement factor
Cc1ccccc1N=C(NOCc1ccccc1)c1nonc1N	inconclusive: 0.0019
COC(=O)Nc1ccc(S(=O)(=O)N2c3ccccc3CCC2C)cc1 (stereo unspecified)	inactive: -0.0581
Cc1ccc(-c2nc3ncccn3c2NC2CCCC2)o1	inconclusive: 0.0165
CCCCNc1c2c3c(cccc3n(C)c1=O)C(=O)c1ccccc1-2	inactive: -0.0634
Cc1nc(N2CCN(C)CC2)c2sc(=S)n(-c3ccccc3)c2n1	active: 0.0596
C=CCOc1nc2c(c(=O)n(C)c(=O)n2C)n1Cc1c(Cl)cccc1Cl	inactive: -0.0108
CCOc1nc2c(c(=O)n(C)c(=O)n2C)n1Cc1ccccc1Cl	inactive: -0.0077
CC(C)(C)C(=O)[C@@H]1[C@@H]2C(=O)N(C3CCCCC3)C(=O)[C@@H]2[C@H]2c3ccccc3C=CN12	active: 0.061
Cn1ccnc1-c1nc2ccccc2[nH]c1=O	inactive: -0.0015
Cn1c(=O)c(NCCc2ccccc2)c2c3c(cccc31)C(=O)c1ccccc1-2	inconclusive: 0.0091
c1ccc2c(N3CCOCC3)nc(-c3ccncc3)nc2c1	inactive: -0.0239
CC(C)C(=O)N1CCN(c2ccccc2NC(=O)c2cccc(Cl)c2)CC1	inconclusive: 0.0061
Cc1ccc(CNc2cc(-c3nn4c(C)nnc4s3)ccc2C)s1	inconclusive: 0.016
C=C(C)Cn1c(N2CCC(Cc3ccccc3)CC2)nc2c1c(=O)[nH]c(=O)n2C	inconclusive: 0.003
COc1ccc2cc(CCC(C)=O)ccc2c1	inconclusive: 0.0051
N#CC1=C(N)N(c2ccccc2)C2=C(C(=O)CCC2)C1c1ccccc1 (stereo unspecified)	active: 0.144
CCOC(=O)C1CCN(Cc2nc3ccccc3c(=O)n2-c2ccc(OCC)cc2)CC1	inconclusive: 0.027
CC1(C)CC(=O)C2=C(C1)N(c1ccccc1)C(N)=C(C#N)C2c1cccnc1 (stereo unspecified)	active: 0.105
